In paper PMC12820563 one finds binding signal (RPM ratio (pull-down/input)) data, which are given here for 63 sequences.

The list shows a part of the results. The list includes weakly bound sequences.

The target in the assay is T1, MBP-FoxP3dN (UniProt Q99JB6).
T1 sequence: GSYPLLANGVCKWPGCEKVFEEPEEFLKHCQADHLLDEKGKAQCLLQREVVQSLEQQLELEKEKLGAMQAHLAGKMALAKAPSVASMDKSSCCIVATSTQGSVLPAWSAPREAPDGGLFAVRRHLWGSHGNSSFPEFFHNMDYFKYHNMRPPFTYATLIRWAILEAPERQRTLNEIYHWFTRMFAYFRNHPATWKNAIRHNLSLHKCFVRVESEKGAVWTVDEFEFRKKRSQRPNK
The assay is described as follows: PD-seq (MBP pull-down with sequencing). Particulars: 20 mM Tris-HCl pH 7.5, 100 mM NaCl, 1.5 mM MgCl2, 0.4 uM protein, 0.1 uM dsDNA library, 30 min, room temperature, amylose pull-down; high values mean tight binding; double strand, one strand shown.
As for “GATGATTGTTCTCCCAGCTGATGAATTAATTTTCTCGAGTAAACAAATTTTCCTAATCTTTCTGTTCAAGCGCCATCTAC”, the binding signal (RPM ratio (pull-down/input)) worked out at 1.65. For “GATGATTGTTCTCCCAGCTGATGAATTGCAGTGATCGAGTAAACAAATTTTCCTAATCTTTCTGTTCAAGCGCCATCTAC”, the binding signal (RPM ratio (pull-down/input)) stood at 0.899. “GATGATTGTTCTCCCAGCTGATGAATTTATCTATTCGAGTAAACAAATTTTCCTAATCTTTCTGTTCAAGCGCCATCTAC”: the binding signal (RPM ratio (pull-down/input)) turned out to be 1.23. The figure for “GATGATTGTTCTCCCAGCTGATGAATTTCAGCGTTCGAGTAAACAAATTTTCCTAATCTTTCTGTTCAAGCGCCATCTAC” is 1.12. Then “GATGATTGTTCTCCCAGCTGATGAATTCCTACCATCGAGTAAACAAATTTTCCTAATCTTTCTGTTCAAGCGCCATCTAC”, with 0.308; and “GATGATTGTTCTCCCAGCTGATGAATTCTCGATGTCGAGTAAACAAATTTTCCTAATCTTTCTGTTCAAGCGCCATCTAC”, with 0.372; and “GATGATTGTTCTCCCAGCTGATGAATTCGGTGTATCGAGTAAACAAATTTTCCTAATCTTTCTGTTCAAGCGCCATCTAC”, with 2.21. Consider “GATGATTGTTCTCCCAGCTGATGAATTATCTGTATCGAGTAAACAAATTTTCCTAATCTTTCTGTTCAAGCGCCATCTAC”, for which the binding signal (RPM ratio (pull-down/input)) turned out to be 0.545. “GATGATTGTTCTCCCAGCTGATGAATTGCTCTGGTCGAGTAAACAAATTTTCCTAATCTTTCTGTTCAAGCGCCATCTAC”: the binding signal (RPM ratio (pull-down/input)) came out at 0.342. On to “GATGATTGTTCTCCCAGCTGATGAATTTTACACTTCGAGTAAACAAATTTTCCTAATCTTTCTGTTCAAGCGCCATCTAC”, for which the binding signal (RPM ratio (pull-down/input)) was determined as 0.356. Then “GATGATTGTTCTCCCAGCTGATGAATTTGGAAGATCGAGTAAACAAATTTTCCTAATCTTTCTGTTCAAGCGCCATCTAC”, with 0.239; and “GATGATTGTTCTCCCAGCTGATGAATTCGTCTTGTCGAGTAAACAAATTTTCCTAATCTTTCTGTTCAAGCGCCATCTAC”, with 0.593. Regarding “GATGATTGTTCTCCCAGCTGATGAATTGTTCACCTCGAGTAAACAAATTTTCCTAATCTTTCTGTTCAAGCGCCATCTAC”, the binding signal (RPM ratio (pull-down/input)) was determined as 0.475. Turning to “GATGATTGTTCTCCCAGCTGATGAATTTGTGAAATCGAGTAAACAAATTTTCCTAATCTTTCTGTTCAAGCGCCATCTAC”, the binding signal (RPM ratio (pull-down/input)) is 0.516. Then “GATGATTGTTCTCCCAGCTGATGAATTATCGGTATCGAGTAAACAAATTTTCCTAATCTTTCTGTTCAAGCGCCATCTAC”, with 0.501; and “GATGATTGTTCTCCCAGCTGATGAATTCTACCGATCGAGTAAACAAATTTTCCTAATCTTTCTGTTCAAGCGCCATCTAC”, with 0.283; and “GATGATTGTTCTCCCAGCTGATGAATTGCTCCTCTCGAGTAAACAAATTTTCCTAATCTTTCTGTTCAAGCGCCATCTAC”, with 0.538. On to “GATGATTGTTCTCCCAGCTGATGAATTTCAACGCTCGAGTAAACAAATTTTCCTAATCTTTCTGTTCAAGCGCCATCTAC”, for which the binding signal (RPM ratio (pull-down/input)) was determined as 0.363. Take “GATGATTGTTCTCCCAGCTGATGAATTTGTCTTCTCGAGTAAACAAATTTTCCTAATCTTTCTGTTCAAGCGCCATCTAC”: the binding signal (RPM ratio (pull-down/input)) worked out at 4.22. As to “GATGATTGTTCTCCCAGCTGATGAATTGCAGCGGTCGAGTAAACAAATTTTCCTAATCTTTCTGTTCAAGCGCCATCTAC”, the binding signal (RPM ratio (pull-down/input)) came out at 0.624. For the sequence “GATGATTGTTCTCCCAGCTGATGAATTCACTTGGTCGAGTAAACAAATTTTCCTAATCTTTCTGTTCAAGCGCCATCTAC”, the binding signal (RPM ratio (pull-down/input)) turned out to be 0.467. For the sequence “GATGATTGTTCTCCCAGCTGATGAATTTTTAACATCGAGTAAACAAATTTTCCTAATCTTTCTGTTCAAGCGCCATCTAC”, the binding signal (RPM ratio (pull-down/input)) was 0.428. The figure for “GATGATTGTTCTCCCAGCTGATGAATTAAATGGGTCGAGTAAACAAATTTTCCTAATCTTTCTGTTCAAGCGCCATCTAC” is 0.388. The figure for “GATGATTGTTCTCCCAGCTGATGAATTGAGGGTCTCGAGTAAACAAATTTTCCTAATCTTTCTGTTCAAGCGCCATCTAC” is 0.692; for “GATGATTGTTCTCCCAGCTGATGAATTGTGAGGTTCGAGTAAACAAATTTTCCTAATCTTTCTGTTCAAGCGCCATCTAC” it is 0.784. “GATGATTGTTCTCCCAGCTGATGAATTGGTCTCTTCGAGTAAACAAATTTTCCTAATCTTTCTGTTCAAGCGCCATCTAC”: the binding signal (RPM ratio (pull-down/input)) was determined as 0.388. As to “GATGATTGTTCTCCCAGCTGATGAATTAACCCTTTCGAGTAAACAAATTTTCCTAATCTTTCTGTTCAAGCGCCATCTAC”, the binding signal (RPM ratio (pull-down/input)) stood at 0.247.

Consider “GATGATTGTTCTCCCAGCTGATGAATTATGTTCTTCGAGTAAACAAATTTTCCTAATCTTTCTGTTCAAGCGCCATCTAC”, for which the binding signal (RPM ratio (pull-down/input)) came to 1.3. Regarding “GATGATTGTTCTCCCAGCTGATGAATTGGGAATGTCGAGTAAACAAATTTTCCTAATCTTTCTGTTCAAGCGCCATCTAC”, the binding signal (RPM ratio (pull-down/input)) turned out to be 0.59.

Turning to “GATGATTGTTCTCCCAGCTGATGAATTGTCATCTTCGAGTAAACAAATTTTCCTAATCTTTCTGTTCAAGCGCCATCTAC”, the binding signal (RPM ratio (pull-down/input)) turned out to be 1.03. With “GATGATTGTTCTCCCAGCTGATGAATTTACTGGTTCGAGTAAACAAATTTTCCTAATCTTTCTGTTCAAGCGCCATCTAC”, the binding signal (RPM ratio (pull-down/input)) worked out at 0.917. For the sequence “GATGATTGTTCTCCCAGCTGATGAATTCTCTGTCTCGAGTAAACAAATTTTCCTAATCTTTCTGTTCAAGCGCCATCTAC”, the binding signal (RPM ratio (pull-down/input)) worked out at 0.237. Then “GATGATTGTTCTCCCAGCTGATGAATTATCTGTGTCGAGTAAACAAATTTTCCTAATCTTTCTGTTCAAGCGCCATCTAC”, with 0.427; and “GATGATTGTTCTCCCAGCTGATGAATTAGCCGACTCGAGTAAACAAATTTTCCTAATCTTTCTGTTCAAGCGCCATCTAC”, with 0.205; and “GATGATTGTTCTCCCAGCTGATGAATTGGTCACGTCGAGTAAACAAATTTTCCTAATCTTTCTGTTCAAGCGCCATCTAC”, with 0.539. Then “GATGATTGTTCTCCCAGCTGATGAATTTGCGTCTTCGAGTAAACAAATTTTCCTAATCTTTCTGTTCAAGCGCCATCTAC”, with 2.22.

For “GATGATTGTTCTCCCAGCTGATGAATTTCGGGAATCGAGTAAACAAATTTTCCTAATCTTTCTGTTCAAGCGCCATCTAC”, the binding signal (RPM ratio (pull-down/input)) came to 0.216. The figure for “GATGATTGTTCTCCCAGCTGATGAATTAGCCCACTCGAGTAAACAAATTTTCCTAATCTTTCTGTTCAAGCGCCATCTAC” is 0.369; for “GATGATTGTTCTCCCAGCTGATGAATTAACCTGGTCGAGTAAACAAATTTTCCTAATCTTTCTGTTCAAGCGCCATCTAC” it is 0.183; for “GATGATTGTTCTCCCAGCTGATGAATTCGCGGGTTCGAGTAAACAAATTTTCCTAATCTTTCTGTTCAAGCGCCATCTAC” it is 0.413. The figure for “GATGATTGTTCTCCCAGCTGATGAATTAGCAGCATCGAGTAAACAAATTTTCCTAATCTTTCTGTTCAAGCGCCATCTAC” is 1.01; for “GATGATTGTTCTCCCAGCTGATGAATTTGCCTCGTCGAGTAAACAAATTTTCCTAATCTTTCTGTTCAAGCGCCATCTAC” it is 1.07; for “GATGATTGTTCTCCCAGCTGATGAATTACGTGATTCGAGTAAACAAATTTTCCTAATCTTTCTGTTCAAGCGCCATCTAC” it is 0.839.

With “GATGATTGTTCTCCCAGCTGATGAATTGATAAGCTCGAGTAAACAAATTTTCCTAATCTTTCTGTTCAAGCGCCATCTAC”, the binding signal (RPM ratio (pull-down/input)) was determined as 0.4.

For the sequence “GATGATTGTTCTCCCAGCTGATGAATTGCGTACATCGAGTAAACAAATTTTCCTAATCTTTCTGTTCAAGCGCCATCTAC”, the binding signal (RPM ratio (pull-down/input)) is 1.28. Then “GATGATTGTTCTCCCAGCTGATGAATTGATTGTTTCGAGTAAACAAATTTTCCTAATCTTTCTGTTCAAGCGCCATCTAC”, with 3.39; and “GATGATTGTTCTCCCAGCTGATGAATTGGTCATTTCGAGTAAACAAATTTTCCTAATCTTTCTGTTCAAGCGCCATCTAC”, with 0.806; and “GATGATTGTTCTCCCAGCTGATGAATTATTAACTTCGAGTAAACAAATTTTCCTAATCTTTCTGTTCAAGCGCCATCTAC”, with 0.386. The figure for “GATGATTGTTCTCCCAGCTGATGAATTGAACTACTCGAGTAAACAAATTTTCCTAATCTTTCTGTTCAAGCGCCATCTAC” is 0.357; for “GATGATTGTTCTCCCAGCTGATGAATTGGAACGTTCGAGTAAACAAATTTTCCTAATCTTTCTGTTCAAGCGCCATCTAC” it is 0.31. Turning to “GATGATTGTTCTCCCAGCTGATGAATTCATAGTATCGAGTAAACAAATTTTCCTAATCTTTCTGTTCAAGCGCCATCTAC”, the binding signal (RPM ratio (pull-down/input)) was 0.783. The figure for “GATGATTGTTCTCCCAGCTGATGAATTCTGGTGGTCGAGTAAACAAATTTTCCTAATCTTTCTGTTCAAGCGCCATCTAC” is 0.43.

For the sequence “GATGATTGTTCTCCCAGCTGATGAATTACACAAGTCGAGTAAACAAATTTTCCTAATCTTTCTGTTCAAGCGCCATCTAC”, the binding signal (RPM ratio (pull-down/input)) was 0.533. The figure for “GATGATTGTTCTCCCAGCTGATGAATTCCTCTTCTCGAGTAAACAAATTTTCCTAATCTTTCTGTTCAAGCGCCATCTAC” is 0.253; for “GATGATTGTTCTCCCAGCTGATGAATTAGATCAGTCGAGTAAACAAATTTTCCTAATCTTTCTGTTCAAGCGCCATCTAC” it is 0.286. In the case of “GATGATTGTTCTCCCAGCTGATGAATTCGGCTGATCGAGTAAACAAATTTTCCTAATCTTTCTGTTCAAGCGCCATCTAC”, the binding signal (RPM ratio (pull-down/input)) was found to be 0.447.

Regarding “GATGATTGTTCTCCCAGCTGATGAATTCTGAAGATCGAGTAAACAAATTTTCCTAATCTTTCTGTTCAAGCGCCATCTAC”, the binding signal (RPM ratio (pull-down/input)) was 0.204. Turning to “GATGATTGTTCTCCCAGCTGATGAATTCTGTAGCTCGAGTAAACAAATTTTCCTAATCTTTCTGTTCAAGCGCCATCTAC”, the binding signal (RPM ratio (pull-down/input)) was 1.62. Consider “GATGATTGTTCTCCCAGCTGATGAATTGGCCCAGTCGAGTAAACAAATTTTCCTAATCTTTCTGTTCAAGCGCCATCTAC”, for which the binding signal (RPM ratio (pull-down/input)) amounted to 0.22. Then “GATGATTGTTCTCCCAGCTGATGAATTCATTGCGTCGAGTAAACAAATTTTCCTAATCTTTCTGTTCAAGCGCCATCTAC”, with 1.03. The figure for “GATGATTGTTCTCCCAGCTGATGAATTTGGAGATTCGAGTAAACAAATTTTCCTAATCTTTCTGTTCAAGCGCCATCTAC” is 0.391; for “GATGATTGTTCTCCCAGCTGATGAATTGCTTTGGTCGAGTAAACAAATTTTCCTAATCTTTCTGTTCAAGCGCCATCTAC” it is 1.08; for “GATGATTGTTCTCCCAGCTGATGAATTTTTAGACTCGAGTAAACAAATTTTCCTAATCTTTCTGTTCAAGCGCCATCTAC” it is 0.25.
